Measured values taken from the supplement of paper PMC4466236.
In all, about 33,000 sequences were measured (“E-score (dimensionless, -0.5 to 0.5)”: median about -0.058, highest 2% from about 0.35 on). Some of the results follow.

What follows are sequences tested on MvaT (assay: PBM 8-mer E-score (mean of HK and ME arrays) (E-score (dimensionless, -0.5 to 0.5)); higher = stronger relative binding preference; most listed sequences are background and not binding sites).
Method: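 Protein binding microarray: GST-tagged full-length MvaT (P. aeruginosa PAO1) bound to two universal double-stranded 60-mer arrays (ME and HK), each with a constant 25-mer primer and a variable 35-mer region covering all 8-mers. The 8-mer E-score (rank-based, range -0.5 to 0.5, >0.45 = specific binding) is the mean of the two arrays.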

Sequence | PBM 8-mer E-score
ACGCATTA | 0.23
CTCCGGGC | -0.248
CCCCGAGC | -0.2
TCAAGCCA | -0.114
CTATCAAA | 0.0554
GCGTGCCC | -0.331
GAAAGGTA | 0.0588
AGATGCTG | -0.101
CCTACGAG | -0.148
CCTAGAGA | -0.155
GATGCTCC | -0.117
GCAGCTGC | -0.102
TCGGCGCA | -0.121
AAAAACCC | 0.0378
CTAGTGTA | 0.173
CTGTCCAA | -0.151
GGTCTGAC | -0.188
CTTACTTC | 0.208
CGAAAGTA | 0.175
CCATTTCG | 0.00358
GACTCGGA | -0.0701
GGGCGCCA | -0.0642
CCACCCTA | 0.0237
ATCCTGGG | -0.197
CCATTTAG | 0.0769

Sequence | PBM 8-mer E-score
CCGATTAG | 0.00629
AACATAAC | 0.245
CTCGGTTA | -0.0194
ACGGAAGG | -0.218
CACCTGGA | -0.208
TCTTGTAA | 0.2
GGTCTGCA | -0.158
AAAGGGAC | -0.0794
ATTTCGGG | -0.0342
ACGCTCAT | -0.161
CGCTACGC | -0.225
ACCGGGTC | -0.186
CTACGATC | 0.0594
ACATTTAC | 0.314
CGGCGTAG | -0.196
ACAATTGC | 0.1
ACTCGACA | -0.13
CTTTATAA | 0.344
ACTGGTAT | 0.142
CTCTGTCA | -0.249
ATTCAGAC | 0.0707
CCTAGTGA | -0.228
CTAAAGGC | -0.0414
CGTTTTTA | -0.0211
GGGCATAC | -0.172

Sequence | PBM 8-mer E-score
CGCAACGA | -0.0798
ATTTCAGA | 0.238
AACTTCGG | 0.138
GTTTCATA | 0.223
CAGATGCG | -0.228
TTCGGCAA | -0.00458
CTCAAAAA | 0.0587
AAACTAGG | 0.0438
AGCCCTCA | -0.148
GCCCGTAC | -0.173
CCACAAAC | 0.0225
CGTTCCAA | 0.0493
TAAGAAAA | 0.203
GTTGAACA | 0.011
GGTCCCCA | -0.303
CAGCCTGC | -0.232
CTAAGCGC | -0.0856
CCGTTCCG | -0.348
CGATGTAC | 0.108
ACAAGCAA | 0.00182
AAGGACGG | -0.17
CTCGGACC | -0.281
GAATAATC | 0.188
ACCCCAGA | -0.195
AGCTGCCG | -0.302

Sequence | PBM 8-mer E-score
GTCTACAA | -0.00741
AGACCCAG | -0.134
ACCCGCCA | -0.0778
GTCTGAAA | -0.0498
AACCGTAA | 0.129
CAGATTAA | 0.137
AACGAGAG | -0.094
TAGAGCTA | -0.0766
AATACGGA | 0.106
GGCGCCTA | -0.234
CTTTGTTC | 0.00923
CCCACGGA | -0.185
AGATTAAT | 0.379
AAGGGTGT | -0.175
ATGGTACG | -0.0257
GGTCTCAC | -0.253
AATTCGTG | 0.0577
ATGCACAC | 0.068
CGAACTTC | 0.101
CATGATAG | 0.014
CAAAGCGA | 0.00337
CCTTGCTC | -0.147
CAGAAGTC | -0.0107
TATAGCAA | 0.262
GACTGTCA | -0.174

Sequence | PBM 8-mer E-score
CAAGGGAA | -0.155
CTTTAATC | 0.141
CATACGTC | -0.0873
ACCGCGCC | -0.057
AGTGAACC | -0.148
CACGAAAG | -0.0835
GTCTTAAA | 0.12
CAGCCAGC | -0.363
ATAAGACC | 0.102
GGCGTCCC | -0.291
ATAATCTA | 0.344
CGCCCTAA | 0.00695
CTGTCCCC | -0.2
GACACCAA | -0.0951
AACCTTGA | -0.124
CGCCGGAA | -0.0357
ACCGGCCT | -0.0568
CTACTCGC | -0.164
CCGACCAG | -0.232
TGCTGCAA | -0.0241
ATAGGTGA | -0.0882
GATTATAC | 0.223
AAGCCAGG | -0.179
ATCCCCGC | -0.131
CATGACTC | -0.128

Sequence | PBM 8-mer E-score
CTGGTGCA | -0.0667
CAGAGCAA | -0.0754
CCGGAACC | -0.114
ACCGGAAA | -0.00431
GGATTTAA | 0.283
CTGTGATC | -0.107
TCCCCCAA | -0.322
TGGCGGAA | -0.0865
GCCCATAC | -0.093
AAATCTAT | 0.134
CAGTCCAG | -0.268
AGATAAAC | 0.169
CGTAAGCA | -0.0735
CTTGGGGC | -0.289
CGGGCCAG | -0.341
GGCCCAAA | -0.203
CAGCGCAA | 0.0189
AAGACATG | 0.0346
GAATGTGC | -0.0165
ATCATGAA | 0.192
ACTGGACC | -0.127
AGGTCGGG | -0.313
GACGCTCA | -0.235
GCAGAAGC | -0.313
ACAGTTAT | 0.305

Sequence | PBM 8-mer E-score
AGCTAGCA | -0.178
AGATGTTG | 0.127
ATGAGGGA | -0.14
AGTTTAAA | 0.378
GACCCCAA | -0.184
AGCCAGGG | -0.272
ACTGGATG | -0.102
AATGCAGT | 0.0384
CCATGTGC | -0.111
CCACACCG | -0.0885
CCTGCGAC | -0.142
CAGCAGCG | -0.247
AGCCTCTC | -0.373
CAAGTATC | 0.154
ACATCGCA | -0.088
CATCAGGC | -0.265
GCTTCGTA | -0.105
CCCCCATA | -0.173
GCCCGTTA | 0.0647
CAAGATGC | -0.222
ATATGCTG | 0.23
GCAATACA | 0.0621
ACGAGGTG | 0.00753
AGTCACTA | -0.00735
ATAAAATC | 0.193

Sequence | PBM 8-mer E-score
GCCCGAGC | -0.162
ATCGTTAC | -0.0464
ACAATGTA | 0.278
TCACATAA | 0.154
ATAGGTTG | 0.073
ACCACGCT | -0.22
GAGAGTAA | 0.104
AAAACAAG | 0.122
CGTGCGAG | -0.0939
CGCATTAG | -0.00831
CTTACGAC | 0.0391
AAAGTCAG | 0.0529
ACGCGTAC | -0.136
GATACGCC | -0.0453
GCCCCTAA | -0.0882
AGCACGTA | -0.0766
CAGTGTGG | -0.0125
CAAACTGC | 0.0485
CAGCCTAC | -0.132
CCTCGCCG | -0.274
CGCGGGCA | -0.192
CTCTACGC | -0.0458
AAGCGTAT | -0.0148
AATTAACT | 0.354
AAGCGCTA | -0.0549

Sequence | PBM 8-mer E-score
ACGGGCGC | -0.162
GGATATAC | 0.208
CATTCCGC | -0.168
ATAGACAG | 0.0269
TACGTAGA | 0.0901
ACAGCTCA | -0.189
AAGTATTC | 0.161
AGAGTGCT | -0.118
CTCGGTTC | -0.181
ATCATAAT | 0.245
CGGCGTTA | -0.0451
CAGCTCAA | -0.0251
ATTTGGCC | -0.102
AACGCCTT | 0.033
CGTCGGCA | -0.294
CGTCGCAA | -0.0288
CCCTGCGA | -0.245
CCTACCAA | -0.271
AGGGTGCA | -0.167
CGGCGTGA | -0.23
AACTTGAA | 0.322
CTTTCTGA | 0.0775
GCACAGGA | -0.145
GTCAAAGA | -0.0646
AATCCGCT | 0.00442

Sequence | PBM 8-mer E-score
AAATCACC | 0.0824
ATCTCAGA | -0.0328
CACCGATA | 0.151
CCCTTCAG | -0.27
AGTTATGG | 0.25
GACTACGA | -0.0412
GAAGCCCA | -0.28
GATGTACC | -0.0137
AACCGGGC | -0.073
ATGATGCC | -0.0717
ATTCACGC | -0.0952
CCGGCAGG | -0.284
CCTTTGAG | -0.158
CTCATATC | -0.0618
TATGGTCA | 0.0445
CCGGTGCA | -0.305
AGCTGTAA | 0.0102
ATTGAGCC | -0.104
CAGTCTCC | -0.134
CAGTTTGC | 0.0121
CATAAAGG | -0.124
CCTCCTAA | -0.197
ATAAAAAC | 0.274
CACCAGGC | -0.208
GATAGACC | -0.222

Sequence | PBM 8-mer E-score
TATAAGGA | 0.348
TAAGTAGA | 0.144
CACCTAAG | -0.143
CCTTGCAC | -0.0729
CTGAGCAA | -0.0891
AGCCGAAG | -0.229
GAACGTTC | -0.117
GAGCGTAC | -0.233
ATTGCCAC | 0.081
AGCGATTA | 0.0596
CTGAAAAG | -0.0791
ATCCATGA | 0.0414
CAGGACCA | -0.182
CCGTGGCC | -0.215
CGAGCACG | -0.196
AGCGAGAT | 0.0328
ATCGCTTC | -0.175
CTTAAGGC | 0.00496
GCAAACCA | 0.108
CGTAGTTC | 0.0905
GGTTAAAC | 0.0681
GCCGAGGC | -0.172
ATTTGGGC | 0.0219
CTGGAGCC | -0.272
AATGGGGT | 0.0941

Sequence | PBM 8-mer E-score
ATCCTAGG | -0.276
CCTACAGA | -0.133
ACCCCGGT | -0.235
ACCAAAAA | 0.0989
AACCAAAC | 0.14
AGCACACC | -0.166
ATTTAGGC | 0.055
CAGATCTC | -0.152
AGGCTCCC | -0.268
TCCAACCA | -0.105
ATCTAGGG | -0.083
ATCGTGCC | -0.0241
GACGTCTC | -0.201
GAGTGAAA | 0.0201
ATCGTGGA | 0.0796
GAAGCGAC | -0.14
AAGCCTAT | 0.18
CGAGGATA | 0.00306
AAAGGCGT | -0.004
AACCAAGG | -0.22
GCCTCAAA | -0.0856
GGTTATAA | 0.344
CAACCACG | -0.102
CTGCAGGC | -0.293
GCTAAACA | 0.0857

Sequence | PBM 8-mer E-score
CTATGCCA | -0.137
CGTGAAAG | 0.0362
ACTGCCCA | -0.105
ACCAGCTA | -0.124
ATTATCCC | 0.253
ATGCGCAA | 0.0132
AGATGATC | -0.0255
GTCTGCGA | -0.147
AGTCGTCG | -0.147
TGCAAGCA | -0.189
CGTCATTC | -0.075
CTAAGTGC | 0.0641
CCATAGGG | -0.258
CATGCTCA | -0.224
AGCCTTCG | -0.32
CATGCCTC | -0.216
GCCGCGTA | -0.0692
AGTAGGCC | -0.153
AACTGGTC | -0.0685
AGAGGGTG | -0.2
GTAGCTAA | -0.0172
CAGGCAGA | -0.162
CTAGCGGC | -0.171
GCAGATGC | -0.166
AATGCTTG | 0.0598

Sequence | PBM 8-mer E-score
TTGCTAAA | 0.202
GTCCGCCA | -0.235
ACATTGTA | 0.162
AAGCCAAT | 0.0091
CACAGGCG | -0.296
TAACAAAA | 0.318
TCGTTGCA | -0.0504
GGCCACAC | -0.183
ACTGGTAA | 0.149
CATTTCAG | 0.0682
GCCGCAGA | -0.284
GCTCGCCA | -0.107
AAACGTGA | -0.0478
AGCAGTTG | -0.00134
GCTCCCAA | -0.14
TGCACCAA | 0.0426
TATGTTCA | 0.186
AGGCTGCC | -0.298
CATACACC | 0.06
